Measurements as given in the supplement of paper PMC12217912.
The list shows a part of the results. The full chains were built here from the parent and the listed change. Values near 0.05 are background.

B1: TEV protease; numbered along this chain (parent)
chain: MGESLFKGPRDYNPISSSICHLTNESDGHTTSLYGIGFGPFIITNKHLFRRNNGTLVVQSLHGVFKVKDTTTLQQHLVDGRDMIIIRMPKDFPPFPQKLKFREPQREERICLVTTNFQTKSMSSMVSDTSCTFPSGDGIFWKHWIQTKDGQCGSPLVSTRDGFIVGIHSASNFTNTNNYFTSVPKNFMELLTNQEAQQWVSGWRLNADSVLWGGHKVFMVKPEEPFQPVKEATQL

Variants of: B1
Test: raw area under fraction-flipped curve 0-4 h after induction (AUC4h, not background-subtracted), DNA-recorder readout of cleavage of the substrate (dimensionless); higher = more cleavage of the substrate by the protease variant
Conditions: temperature: 34 °C; time window: 0-4 h after rhamnose induction
Procedure: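 In vivo DNA recorder in E. coli TOP10(DE3) ΔrhaA at 34 °C. Each TEVp single-site mutant (parent TEVp 0) is paired with a single-site variant of the 7-mer TEVs (canonical ENLYFQ|S). The substrate sits between flexible linkers in a Bxb1-sfGFP-TEVs-SsrA fusion, so cleavage stabilises Bxb1 and speeds flipping of a recombination array, read by NGS. The value is the raw area under the fraction-flipped curve over 0-4 h after rhamnose induction (AUC4h), with ≥20 reads per time point. It is not background-subtracted; inactive controls average about 0.047.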
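Note: Bxb1 expression induced with 0.2% (w/v) L-rhamnose at OD600 near 0.5, cultures sampled hourly, flipped fraction per protease–substrate barcode pair counted by paired-end Illumina sequencing.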

Variant	area with substrate ENAYFQS	area with substrate ENCYFQS	area with substrate ENDYFQS	area with substrate ENEYFQS	area with substrate ENGYFQS	area with substrate ENIYFQS	area with substrate ENKYFQS	area with substrate ENNYFQS	area with substrate ENPYFQS	area with substrate ENQYFQS	area with substrate ENRYFQS	area with substrate ENSYFQS	area with substrate ENTYFQS	area with substrate ENYYFQS	area with substrate ENMYFQS	area with substrate ENVYFQS	area with substrate ENHYFQS	area with substrate ENFYFQS	area with substrate ENWYFQS
Q105H	0.0547	0.0634	0.0603	0.0618	0.0802	0.145	0.0735	0.0664	0.0376	0.0654	0.052	0.0576	0.0596	0.0574					
R106L	0.075		0.0549			0.0932		0.0843	0.067	0.0572		0.0455			0.0725	0.0769			
E107F	0.0566		0.0701		0.0624	0.0855				0.0644	0.0383	0.0461	0.0607	0.0555		0.0629	0.0525		
E108C	0.0573		0.0439	0.0607	0.0562			0.0604		0.0527	0.0616	0.0613	0.0558		0.0715	0.069	0.0371	0.05	
E108H	0.0591	0.0569	0.0391	0.0585	0.0553	0.0729	0.0439	0.0415	0.0481	0.0483	0.042	0.049	0.0541	0.0485	0.0636	0.0682	0.0389	0.0497	0.0464
E108L	0.0362	0.0571	0.0734			0.0648	0.0503				0.0548	0.0574		0.0546		0.0675	0.0435	0.0583	
R109F	0.0572	0.0665	0.0654	0.0456	0.0684		0.059			0.0578	0.0438	0.0631	0.0577		0.0796	0.0613	0.0743	0.0526	
I110C	0.051	0.0718	0.0603	0.0585		0.173		0.0557	0.064	0.0555	0.048	0.0633	0.0653	0.0626	0.0836	0.0784	0.0546	0.078	
C111R	0.0645	0.0516	0.0533	0.0481				0.0665		0.0654		0.0742				0.0957			
C111V	0.0527		0.0544	0.0569	0.0585	0.129		0.0601		0.0616	0.041	0.0661	0.0571	0.0827	0.0693	0.0772	0.0414	0.067	
L112P	0.0566	0.0519	0.0555	0.0592	0.0576			0.0567	0.0505	0.0494		0.0562	0.0599	0.0508	0.0607	0.089	0.0405	0.0509	0.054
T114C	0.0795	0.0684	0.0424	0.0625	0.0697					0.0688					0.0852	0.0781	0.0523		
T115D	0.0796	0.177	0.0514	0.0626	0.0587		0.0675	0.0568		0.0577		0.0622	0.0708	0.0676		0.0699	0.0722	0.0374	0.0499
